Drawing on patent publication US20110195896A1 (CASE WESTERN RESERVE UNIVERSITY, published 2011), this text covers Kd and relative affinity for two molecules.

For test [1], the target named is T1, Type I IGF receptor.
T1 construct: also called IGF-I RECEPTOR; Insulin-like Growth Factor Receptor
Nature of the test: competitive displacement of 125I-IGF-1 from IGFR.

The target in test [2] is T1, Type I IGF receptor. Nature of the test: competitive displacement of labelled tracer from IGFR.
The target of test [3] is T2, human insulin receptor isoform A (human).
T2 construct: the A isoform lacks exon 11); also called IR-A; HIRA
In words: competitive displacement of 125I-insulin from receptor.

B1: Lantus ® (ligand)
chain 1: not shown
chain 2: not shown
By Kd is commonly meant the free concentration of one partner at which half of the binding sites on the other are occupied at equilibrium, for simple one-to-one binding. Low readings indicate higher affinity, high ones lower affinity. In the case of B1, in the test with Type I IGF receptor [1], the Kd was determined as 3.14 nM and the relative affinity is 0.015 relative to IGF-1.

B2: His^A8, Asp^B10, Asp^B28, Pro^B29 insulin (two chain analogue) (ligand)
chain 1: FVNQHLCGSDLVEALYLVCGERGFFYTDPT
chain 2: not shown
notes: also called A8-His, B-10 Asp, B 28-Asp, B 29-Pro ins; two-chain control analog
Consider B2, for which the figures for the relative affinity (in the test with Type I IGF receptor [2]; in test [3]) were 3.54 relative to human insulin and 4.25 relative to human insulin, respectively. Moreover, in test [3], the Kd was 0.008 nM.
